Measurements as given in PubChem BioAssay AID624296 (National Center for Advancing Translational Sciences (NCATS), 2012).
Screen size: about 350,000 compounds; about 9,900 (2.8%) were called active. This list was built around the results that the source calls inconclusive (neither active nor inactive); the mix of calls is not that of the screen. Calls follow the shape of the dose curve; as a rule, active = well fitted activation curve with a large enough effect; inconclusive = small, poorly fitted or top-dose-only effect; inactive = no such curve, though single readings can be large or run the other way. Potencies of inconclusive entries are left out as doubtful fits.

Assay: A quantitative high throughput screen for small molecules that induce DNA re-replication in MCF 10a normal breast cells. Also: nearly all actives have a fitted effect of over 50% in size.
Conditions: MCF 10A DNA re-replication, Hoechst nuclear intensity, 48 h; series mostly up to 46.1 µM
Potency is read from the fitted curve at half-maximal effect; tags tell the direction and shape of the fitted curve.

Row | Structure (SMILES) | Potency
1 | CCOc1ccc(NC2=NCCC(=O)N2Cc2cccs2)cc1 | inconclusive [activator, partial curve, poor fit]
2 | COc1ccc(NC(=O)O/N=C/c2ccc(Br)cc2)cc1 | inconclusive [activator, partial curve, poor fit]
3 | O=C1/C(=C/c2ccncc2)CCc2ccccc21 | inconclusive [activator, single point]
4 | CCN(CC)CCCNc1oc(-c2ccc(OC)c(OC)c2)nc1C#N | inactive
5 | O=C(NC1CCOCC1)C1CCC(=O)N(CCc2ccc(Cl)cc2)C1 (stereo unspecified) | inactive
6 | CC(c1ccccc1F)n1cc(C(=O)NCCc2ccco2)nn1 (stereo unspecified) | inconclusive [activator, single point]
7 | Cc1ccc(-n2c(SCc3ccc(C#N)cc3)nnc2-c2ccccn2)cc1 | inactive
8 | COc1cccc(Nc2nc(-c3ccccc3O)nc3ccccc23)c1 | inconclusive [activator, partial curve, poor fit]
9 | Cc1ccccc1Nc1nn2c(=O)c3ccccc3nc2s1 | inconclusive [activator, partial curve, poor fit]
10 | COc1ccc(CN(C)CCc2ccccn2)cc1OC | inactive
11 | CCC(C)Sc1cccc(-c2nc3cc(C)ccn3c2NC2CCCCC2)c1 (stereo unspecified) | active: 18.4 µM
12 | CC1CCCN(CCOc2cccc(Oc3ccccc3)c2)C1 (stereo unspecified) | inconclusive [activator, partial curve, poor fit]
13 | COc1ccccc1CN(C)CC(=O)Nc1cccc(S(=O)(=O)N2CCCCC2)c1 | inconclusive [activator, full curve, poor fit]
14 | Cc1csc(NC(=O)C2CCN(S(=O)(=O)c3ccccc3)CC2)n1 | inactive
15 | Cc1cc(C)cc(NC(=S)Nc2ccc(Cl)c(Cl)c2)c1 | inconclusive [activator, single point]
16 | O=C(CN1C(=O)NC2(CCCCC2)C1=O)NCc1ccc2c(c1)OCO2 | inconclusive [activator, full curve, poor fit]
17 | COc1ccc(-c2csc(Nc3ccc(O)cc3)n2)cc1 | inconclusive [activator, partial curve, poor fit]
18 | CCOC(=O)c1c(NC(=O)c2ccoc2C)sc2c1CCC2 | inconclusive [activator, single point]
19 | CCOC(=O)[C@H]1[C@H]2COc3ccc(C)cc3[C@@H]2N2C(=O)CN(Cc3ccc(C)cc3)C(=O)[C@@]12C | inconclusive [activator, full curve, poor fit]
20 | CC(C)NC(=O)C1CCN(Cc2cnn(-c3ccccc3)c2-n2cccc2)CC1 | inactive
21 | COCc1cc(C)nc2sc(C(=O)Nc3ccccc3OC)c(N)c12 | inconclusive [activator, single point]
22 | CC#CCCc1nc2ccccc2c(=O)n1N | inconclusive [activator, full curve, poor fit]
23 | CC(C)c1nc2ccccc2n1CC(O)COC1CCCCC1 (stereo unspecified) | inactive
24 | O=[N+]([O-])c1ccc(S(=O)(=O)N2CCN(Cc3c[nH]c4ccccc34)CC2)cc1 | inactive

Row | Structure (SMILES) | Potency
25 | Cc1cccc2cc(C#N)c(N3CCCC3)nc12 | inconclusive [activator, single point]
26 | Cn1c(-c2ccc3c(c2)OCO3)cnc1NCc1cccc(Cl)c1 | inconclusive [activator, single point]
27 | CC(C)(C)OC(=O)CNC(=O)c1nc[nH]c1C(=O)N1CCN(c2ccccc2)CC1 | inactive
28 | O=C(Nc1ccccc1F)Nc1ccc([N+](=O)[O-])cc1Cl | inconclusive [activator, partial curve, poor fit]
29 | COCc1nnc(NC(=O)CCS(=O)(=O)c2ccccc2)s1 | inconclusive [activator, single point]
30 | CC(C)N1CCN(S(=O)(=O)c2ccccc2)c2ccccc21 | inconclusive [activator, single point]
31 | O=C(Nc1cccnc1)c1ccc2nc(-c3ccccc3)c(-c3ccccc3)nc2c1 | inconclusive [activator, single point]
32 | NC(=O)c1cc([N+](=O)[O-])ccc1N1CCCCC1 | inactive
33 | Cc1c(CC(=O)NCC(C)C)c(=O)oc2cc3c(cc12)CCC(C)(C)O3 | inactive
34 | COc1ccc(/C=N/NC(=O)c2cccc(Br)c2)cc1CSc1ccccn1 | active: 14.6 µM
35 | O=C(N/N=C/c1cc(Cl)ccc1O)c1cccnc1 | inconclusive [activator, single point]
36 | CC(=O)N1CCc2cc(Br)cc(S(=O)(=O)CCC(=O)N3CCN(c4ccccn4)CC3)c21 | inconclusive [activator, single point]
37 | O=C(Cc1ccccc1F)Nc1cc(S(=O)(=O)N2CCCC2)ccc1Cl | inactive
38 | CCCc1[nH]nc2c1C(/C(C)=C/c1ccccc1)C(C#N)=C(N)O2 (stereo unspecified) | inactive
39 | COc1ccc(OC)c(CN2CCN(C(=O)[C@@H](NC(=O)c3cccc(C)c3)C(C)C)CC2)c1 | inconclusive [activator, partial curve, poor fit]
40 | C[C@H](NC(=O)c1nc[nH]c1C(=O)NCc1ccc(CNC(=O)OC(C)(C)C)cc1)c1ccccc1 | active: 14.6 µM
41 | CCC1(C)CC2(CCCN(CCC(=O)c3ccccc3)C2)CCO1 (stereo unspecified) | active: 20.6 µM
42 | CCOC(=O)c1c(NC(=O)CC2SC(=NC)N(C)C2=O)sc(C)c1C (stereo unspecified) | inconclusive [activator, partial curve, poor fit]
43 | CCN(CC)S(=O)(=O)c1ccc(OC(C)C)c(NC(=O)C2=COCCO2)c1 | inactive
44 | CCOC(=O)c1oc2ccc(Br)cc2c1CSc1nnc(C)s1 | inconclusive [activator, partial curve, poor fit]
45 | O=C(CN1C(=O)S/C(=C\c2ccc(Cl)cc2)C1=O)NNC(=O)c1ccccc1O | inactive
46 | COc1ccc(N2CCC(CNC(=S)Nc3cc(C)ccc3C)C2)cc1 (stereo unspecified) | inactive
47 | CCOC(=O)c1c(/N=C/N(C)C)sc2c1CCC2 | inconclusive [activator, single point]
48 | Cc1nc2c(C(=O)N3CCN(c4ccccn4)CC3)cnn2c(C)c1Cc1cccc(Cl)c1 | inconclusive [activator, single point]

Row | Structure (SMILES) | Potency
49 | Clc1ccc(CNc2ccc(CNc3ncn[nH]3)cc2)c(Cl)c1 | inconclusive [activator, single point]
50 | CCOc1ccc(OCC)c(NC(=O)CN2CCN(c3cccc(C)c3)CC2)c1 | inconclusive [activator, single point]
51 | S=C(NCc1ccccc1)NCc1cccc(CNC(=S)NCc2ccccc2)c1 | inconclusive [activator, single point]
52 | CCN(CC(=O)Nc1ccccc1OC)CC(=O)Nc1ccccc1C(F)(F)F | inconclusive [activator, single point]
53 | Cc1cccn2c(=O)c3cc(C(=O)NC4CCCC4)sc3nc12 | inactive
54 | COc1ccc(-c2nc(C#N)c(N3CCc4ccccc4C3)o2)cc1OC | inconclusive [activator, partial curve, poor fit]
55 | C=CCN1c2ccccc2C(=O)CS1(=O)=O | inconclusive [activator, full curve, poor fit]
56 | Cc1cc(=O)[nH]c(N/N=C/c2ccccn2)n1 | inconclusive [activator, full curve]
57 | NC(=S)NNC(=O)c1ccccc1 | inactive
58 | COC(=O)c1cc(NS(=O)(=O)c2ccc(N3CCCCCC3)c([N+](=O)[O-])c2)cc(C(=O)OC)c1 | inconclusive [activator, partial curve, poor fit]
59 | COc1ccc(CCC(=O)NCc2ccc3c(c2)OCO3)cc1 | inconclusive [activator, partial curve, poor fit]
60 | COc1ccc(C(=O)NC2CCCc3ccccc32)cc1[N+](=O)[O-] (stereo unspecified) | inconclusive [activator, single point]
61 | COc1ccc(C(=O)NC(=S)NNC(=O)[C@H]2C[C@@H]2c2ccccc2)cc1OC | inconclusive [activator, single point]
62 | CCOc1ccc(OCCC(=O)OCC(=O)NC2CCCC2)cc1 | inactive
63 | Cc1cc(C(=O)O)ccc1-n1c(C)cc(C=C2C(=O)c3ccccc3C2=O)c1C | inconclusive [activator, single point]
64 | Cc1ccc2[nH]c(C)c(/C=C/c3cc[n+](C)cc3)c2c1 | inactive
65 | CCC(C)(C)NC(=O)C(c1ccc(C)cc1)N(CC1CCCO1)C(=O)c1csnn1 (stereo unspecified) | inactive
66 | Cc1cc(Nc2ccccc2)c2c([N+](=O)[O-])ccc(C)c2n1 | inactive
67 | S=C(Nc1ccc(Cl)cc1Cl)Nc1ccccc1Oc1ccccc1 | inconclusive [activator, single point]
68 | C=CCn1c(SCC(=O)Nc2cc(C)c(Cl)cc2OC)nnc1-c1ccco1 | inactive
69 | CC1CC(C)CN(CCOCCSc2ccccc2)C1 (stereo unspecified) | inconclusive [activator, single point]
70 | CC(=O)n1cc([C@@H]2C=C(C(=O)Nc3ccccc3)O[C@H](OCCCCO)C2)c2ccccc21 | inconclusive [activator, partial curve, poor fit]
71 | Cc1ccc(N(CC(=O)Nc2ccccc2-c2ccccc2)S(=O)(=O)c2ccccc2)c(C)c1 | active: 20.6 µM
